The record followed here is ChEMBL document CHEMBL4888484, “Replenishing the malaria drug discovery pipeline: Screening and hit evaluation of the MMV Hit Generation Library 1 (HGL1) against asexual blood stage Plasmodium falciparum ,using a nano luciferase reporter read-out” (2022).

Broadly, the % Inhibition is the drop in the measured response relative to a control, in per cent.

Among all 150,000 compounds or so, about 540 (0.36%) showed an effect of 50% or more. The list shows a part of the results.

This test concerns Plasmodium falciparum. The test is described as follows: Primary screen in NF54 nanoGlo assay, in single point, at 2uM, 72h; a lower Z score goes with more inhibition. The following applies: timepoint 72 hour. Format: functional, Erythrocyte.
For the compound `CC(=O)N1CCOC[C@H](Oc2ccc(C(F)(F)F)cn2)C1`, the “% Inhibition” value is recorded as -5% and the Z score is 0.83.
Regarding `COc1ccc2[nH]c(CN3CCC[C@H](N(C)CCc4ccccn4)C3)c(C)c2c1`, the “% Inhibition” value is reported as -11% and the Z score turned out to be 1.01.
Taken in the same sequence, the figures for `O=C(NCC1CC(F)(F)C1)c1ccc[nH]1` were -3% and 0.39.
`CCC[C@]1(CO)CCCN1C(=O)c1ccc(N2CCCC2=O)cc1`: the “% Inhibition” value is given as -4% and the Z score came to 0.66.
In the same order, the values of `CCC1(CC)C(=O)N(C)C(=O)N=C1Nc1ccc(OC)cc1` are -10% and 0.87.
As for `CC(C)C(=O)N1CCC(c2nc(-c3cccn3C)no2)CC1`, the “% Inhibition” value is listed as -15% and the Z score is recorded as 2.03.
Taken in the same sequence, the figures for `CC(C)c1csc(C(=O)N(C[C@H]2CCCO2)c2ccncc2)n1` were -14% and 1.59.
Taken in the same sequence, the figures for `Cn1nc(-c2ccncc2)cc1CNC(=O)c1c(F)cccc1F` were -20% and 2.62.
In the same order, the values of `CCn1nc(C)c(CNCc2cccnc2C)n1` are -2% and 0.22.
For the compound `O=C(Nc1nnc(Cc2ccsc2)s1)c1ccc(Cl)cn1`, the “% Inhibition” value is recorded as -11% and the Z score turned out to be 1.22.
For `COCC(=O)N[C@H]1CN(C/C(C)=C/c2ccco2)C[C@@H]1C1CC1`, the “% Inhibition” value was -6% and the Z score is listed as 1.04.
As for `CNc1ccnc(N2CCn3nc(CNS(C)(=O)=O)cc3C2)n1`, the “% Inhibition” value is reported as -13% and the Z score turned out to be 1.26.
In the same order, the values of `CCc1ncoc1C(=O)NC(C)(C)c1cc(Cl)ccc1OC` are 8% and -0.88.
Taken in the same sequence, the figures for `Cc1ccc(N(C)C(=O)C2CC2C(=O)O)cc1Cl` (configuration not stated) were 2% and -0.37.
Taken in the same sequence, the figures for `Cc1cc(O)nc(C(=O)N2CC3(CCC3)c3ccccc32)c1` were -12% and 2.19.
On to `CCn1c(C)cc(C(=O)N2CC[C@](C(N)=O)(c3ccccc3)C2)c1C`, for which the “% Inhibition” value is listed as -12% and the Z score amounted to 1.6.
Take `CC1(N2CCOCC2)CCN(c2ncc(C(F)(F)F)s2)CC1`: the “% Inhibition” value is recorded as -5% and the Z score turned out to be 0.84.
Taken in the same sequence, the figures for `COc1ncccc1C(=O)OCC(=O)N(C)C1CCCCC1C` (configuration not stated) were -5% and 0.54.
Turning to `CN(Cc1ccsc1)c1cc([C@H]2C[C@@H](N)C2)nc(C2CC2)n1`, the “% Inhibition” value was 16% and the Z score is -1.91.
In the same order, the values of `CCOC1CC(NCc2ccc3c(c2)C(=O)NCC3)C1` (configuration not stated) are 12% and -1.39.
Taken in the same sequence, the figures for `Cc1nc(CN2C(=O)C3CC=CCC3C2=O)sc1C` (configuration not stated) were 14% and -1.82.
`CC(C)(C)c1nc(Cn2cc(F)ccc2=O)no1`: the “% Inhibition” value was -17% and the Z score is 2.11.
Taken in the same sequence, the figures for `Cc1nn(C(C)C)c(C)c1CNC(=O)CCC1=NNC(=O)CC1` were 1% and -0.07.
Turning to `Cc1n[nH]cc1CNCCN1CCC[C@H](C)C1`, the “% Inhibition” value was found to be 15% and the Z score is on record as -2.18.
`COCCN(Cc1ccc(OC)c(OS(=O)(=O)c2cccc(C(F)(F)F)c2)c1)C(=O)c1ccccc1F`: the “% Inhibition” value is listed as -7% and the Z score is reported as 1.24.
In the same order, the values of `N#Cc1nccnc1NCCCOC1CCCCC1` are -7% and 1.14.
Taken in the same sequence, the figures for `CC(C)c1nn(C)cc1C(=O)NCC1(C2CCC2)CCC1` were 28% and -3.2.
In the same order, the values of `Cc1oc(C(=O)N2CCC(C)(C)[C@@H](c3ccccc3)C2)cc1CO` are 5% and -0.72.
On to `COc1nc2ncnc(OC)c2nc1C#N`, for which the “% Inhibition” value is recorded as 38% and the Z score is given as -1.2.
With `Cc1ccn2c(NC(C)(C)CC(C)(C)C)c(CC(C)C)nc2c1`, the “% Inhibition” value was -21% and the Z score came to 2.32.
In the same order, the values of `CC(=O)N[C@H]1CCN(C(=O)NCCc2cccc(Cl)c2)C1` are -15% and 2.93.
In the same order, the values of `NC1(C(=O)N2CCc3[nH]nc(-c4cccc5ccccc45)c3C2)CCC1` are -7% and 0.98.
As for `Cc1ccc(CCC(=O)Nc2ccccc2-n2ncc3c(=O)[nH]cnc32)c(C)c1`, the “% Inhibition” value was -8% and the Z score worked out at 1.22.
Taken in the same sequence, the figures for `CCC1CCCCC1N(C)c1ccc2nnnn2n1` (configuration not stated) were -11% and 1.68.
Taken in the same sequence, the figures for `c1cncc([C@@H]2CN(Cc3nccs3)CCO2)c1` were 0% and -0.05.
Taken in the same sequence, the figures for `COc1ccccc1N1CCN(C(=O)C[C@@H]2O[C@H](CNC(=O)c3ccc(C)cc3)[C@@H](O)[C@H]2O)CC1` were 14% and -1.58.
Regarding `O=C(NCCCn1ccnc1)C1CCCC1`, the “% Inhibition” value is -8% and the Z score was 0.91.
Consider `CCCOc1cccc2c(N3CCNC(=O)C3)ccnc12`, for which the “% Inhibition” value is -8% and the Z score was 1.5.
In the same order, the values of `COc1cc(OC)c([C@H](C)NCCc2cn(C)cn2)cc1Cl` are -5% and 0.83.
For the compound `O=C1Nc2cc(C(=O)N3CCN(Cc4ccc5c(c4)OCO5)CC3)ccc2N2CCCC[C@@H]12`, the “% Inhibition” value is given as -3% and the Z score stood at 0.51.
Take `CC[C@H]1C(=O)NCCN1CC=Cc1ccccn1`: the “% Inhibition” value is given as -16% and the Z score stood at 2.11.
Taken in the same sequence, the figures for `Cc1cc(NS(=O)(=O)c2ccc(N(C)C)nc2)cnc1N1CCCCC1` were 1% and -0.1.
Taken in the same sequence, the figures for `Cc1nn(-c2ccc(Cl)cc2Cl)c(C)c1CC(=O)N1CC[C@@H](N)C1` were -1% and 0.1.
Taken in the same sequence, the figures for `Cc1c(C(=O)N2CCC(O)(CN)CC2)sc2cc(F)ccc12` were -14% and 1.95.
Regarding `Cc1nn(C)cc1NC(=O)CN(C)Cc1ccoc1`, the “% Inhibition” value is on record as -6% and the Z score stood at 1.17.
For the compound `C[C@@H]1CN(C(=O)C23CCC(CC2)C3)C[C@H](C)N1C`, the “% Inhibition” value is given as -5% and the Z score is 0.86.
In the same order, the values of `O=C1C[C@@H](C(=O)Nc2scnc2-c2ccccc2)Oc2ccc(Cl)cc21` are 0% and 0.08.
In the same order, the values of `CC(=O)c1ccc(N2CCN(C(=O)Cn3cnc4onc(C)c4c3=O)CC2)cc1` are 2% and -0.33.
On to `CC(C)C[C@@H](CNC(=O)CC(=O)Nc1nccs1)N(C)C`, for which the “% Inhibition” value is -4% and the Z score turned out to be 0.52.
Consider `Cc1cc(F)c(S(N)(=O)=O)c(N[C@@H]2C=C[C@H](CO)C2)c1`, for which the “% Inhibition” value was 21% and the Z score is -2.65.
Turning to `CCOC(=O)c1nnn(Cc2ccccc2Cl)c1NC(=O)CN1CCN(C)CC1`, the “% Inhibition” value was -8% and the Z score was 0.99.
For `CC(C)c1nnc(CNc2ccccc2C(=O)C2CCCC2)o1`, the “% Inhibition” value is -13% and the Z score is on record as 1.08.
Taken in the same sequence, the figures for `O=C(Nc1ccc2oc(C3CC3)nc2c1)c1cncc(Br)c1` were -10% and 2.05.
In the same order, the values of `Cc1nn(CCc2nnc(-c3ccc4c(c3)OCO4)o2)c(C)c1Cl` are 36% and -1.17.
As to `CC(NC(=O)CN(C)C(C)C)C(O)c1c(F)cccc1Cl` (configuration not stated), the “% Inhibition” value is listed as 39% and the Z score is -3.97.
In the same order, the values of `CC(=O)c1cccc(NC(=O)N2C[C@H](c3nc(-c4ccccc4)no3)[C@@H](C)C2)c1` are 5% and -0.55.
Take `COC[C@H]1CN(C(=O)CCc2ccccc2)CC12CCOCC2`: the “% Inhibition” value is given as -11% and the Z score came out at 1.41.
Consider `CC(C)NC(=O)NC[C@H]1CCN(Cc2ccc(-c3cc[nH]n3)o2)C1`, for which the “% Inhibition” value is 8% and the Z score is on record as -1.09.
On to `Fc1cc2nc3c(nc2cc1F)CCC3`, for which the “% Inhibition” value is given as -17% and the Z score turned out to be 1.94.
With `C[C@H]1Cc2ccccc2N1C(=O)c1nn(-c2cccc(Br)c2)c2c1CCC2`, the “% Inhibition” value is given as -16% and the Z score stood at 3.01.
Consider `CCn1cc(CCN2C[C@@H]3CN(Cc4ccccc4)C[C@@H]3C2)cn1`, for which the “% Inhibition” value is listed as -9% and the Z score amounted to 1.18.
In the same order, the values of `c1cc(-c2noc(C3CCOCC3)n2)ccc1OC1CNC1` are -11% and 2.07.
On to `CC(C)c1cc([C@@H]2CCCN2S(=O)(=O)c2cccc(Cl)c2)no1`, for which the “% Inhibition” value is -19% and the Z score was determined as 2.57.
Taken in the same sequence, the figures for `COc1cc2c(cc1C=Cc1cncc(C)n1)OCO2` were -34% and 3.99.
Turning to `O=C(C1CCS(=O)(=O)C1)N1CCCCCC1C=Cc1ccccc1` (configuration not stated), the “% Inhibition” value is -4% and the Z score is recorded as 0.65.
Take `CCN(CC)S(=O)(=O)CC(=O)NCCCc1ccccc1`: the “% Inhibition” value is -7% and the Z score is recorded as 0.91.
With `c1ccc(-c2nnn(C(c3ccccc3)(c3ccccc3)c3ccccc3)n2)cc1`, the “% Inhibition” value is given as 0% and the Z score stood at 0.07.
Taken in the same sequence, the figures for `C[C@H](C(=O)N1CCOCC1)C1CCN(S(=O)(=O)c2cccs2)CC1` were -15% and 2.02.
On to `CC(C)C(C)(C)NC(=O)CN1Cc2c(cnn2-c2ccccc2)C1=O`, for which the “% Inhibition” value is 7% and the Z score was -0.91.
`COc1nccc(CN2CCC(OCCO)CC2)c1F`: the “% Inhibition” value is reported as 10% and the Z score is on record as -1.26.
For `FC(F)(F)Oc1cccc(C2(c3nc(Cc4ccon4)no3)CCC2)c1`, the “% Inhibition” value is 2% and the Z score is listed as -0.28.
`CC(C)c1ccc(NC(=O)[C@@H](NC(=O)C2CCN(C(=O)[C@@H]3CCCN3C(=O)OC(C)(C)C)CC2)C(C)C)cc1`: the “% Inhibition” value was 5% and the Z score was -0.68.
In the same order, the values of `CC(CCC(C)(C)C)NC(=O)NCC(O)c1cnn(C)c1` (configuration not stated) are -13% and 2.06.
In the case of `COC(=O)c1ccc(C)c(NC(=O)OCC(F)(F)F)c1`, the “% Inhibition” value came out at 6% and the Z score was -0.75.
In the same order, the values of `CN(Cc1ccon1)C(=O)c1ccc2sc(N)nc2c1` are 8% and -1.2.
Turning to `COc1ccc(N2C(=O)N[C@@H](CCC(=O)N[C@H](C)c3nc4ccccc4[nH]3)C2=O)cc1`, the “% Inhibition” value is -8% and the Z score stood at 1.03.
Taken in the same sequence, the figures for `C[C@@H](C(=O)N1CC(c2nc(-c3ccccc3)no2)C1)n1cncn1` were 6% and -0.92.
For `CC1CCN(S(=O)(=O)c2ccc3c(ccc(=O)n3CC(=O)Nc3ccc(C(C)C)cc3)c2)CC1`, the “% Inhibition” value is on record as -7% and the Z score is given as 0.94.
In the same order, the values of `CCOCn1nc(C)c(C[C@H](C)C(=O)NC2(C)CCCCC2)c1C` are -2% and 0.24.
With `CC[C@H](NC(=O)c1ncncc1Cl)c1c(C)noc1C`, the “% Inhibition” value is reported as 1% and the Z score is reported as -0.17.
Consider `Cc1ccc(S(=O)(=O)Nc2nc(-c3ccc(C4CCCCC4)cc3)cs2)cc1`, for which the “% Inhibition” value is -4% and the Z score stood at 0.73.
For `O=C(NCC1CCCCC1O)C(=O)Nc1c(F)cccc1F` (configuration not stated), the “% Inhibition” value is listed as -4% and the Z score is reported as 0.57.
For `CCN1CCC(N2CCO[C@@]3(COCCN(C(=O)c4ccccc4C)C3)C2)CC1`, the “% Inhibition” value was -10% and the Z score came out at 1.93.
In the same order, the values of `CC(C)C(=O)Nc1nc(NC(=O)C(C)C)n(C)n1` are 1% and -0.24.
On to `O=C(NS(=O)(=O)c1cccs1)[C@@]12CCCC[C@@H]1CNC2`, for which the “% Inhibition” value worked out at 1% and the Z score was -0.18.
For `CN(Cc1ccc(-c2ccco2)cc1)C1CCOCC1`, the “% Inhibition” value was -28% and the Z score was 2.61.
